{
  "source": "PubChem BioAssay AID504832",
  "about": "(National Center for Advancing Translational Sciences (NCATS), 2011)",
  "note": "Among all 310,000 compounds or so, about 18,000 (5.8%) were called active. The shares of active, inactive and inconclusive entries below differ from those in the screen. The call rests on the fitted dose curve; in most records, active means well fitted inhibition curve with a large enough effect; inconclusive means small, poorly fitted or top-dose-only effect, or another doubt; inactive means no such curve, though single readings can be large or run the other way. Potencies of inconclusive entries are left out as doubtful fits. Potency means the concentration at half of the fitted maximal effect; tags describe the fitted curve by direction and shape.",
  "data": [
    {"experiment": "Primary qHTS for delayed death inhibitors of the malarial parasite plastid, 48 hour incubation", "details": "P. falciparum luciferase growth in erythrocytes; series mostly up to 28.7 µM", "how_it_was_run": "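Parasite viability was followed by luminescence of a genomically integrated firefly luciferase. Cultures held 0.1% parasitemia at 2% hematocrit (final), incubated under 5% CO2 at 37 C.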", "values": [
      {"smiles": "O=C(Oc1ccc(/C=N/NC(=O)c2ccccn2)cc1)c1cccc(Br)c1", "Potency": "inactive"},
      {"smiles": "Cc1ccc(C(C)C)cc1NC(=O)Nc1ccc([N+](=O)[O-])cc1", "Potency": "active: 4.15 µM"},
      {"smiles": "CN(C1CCCCC1)S(=O)(=O)c1ccc(NC(=O)c2ccc(Br)o2)cc1", "Potency": "inconclusive [inhibitor, partial curve]"},
      {"smiles": "COc1ccc2c(c1OC)CN1CCc3cc4c(cc3[C@@H]1[C@@H]2O)OCO4", "Potency": "inconclusive [inhibitor, partial curve, poor fit]"},
      {"smiles": "O=C(c1cc2nc(-c3ccc(F)cc3)cc(C(F)(F)F)n2n1)N1CCCCC1c1cccnc1", "note": "(stereo not given)", "Potency": "active: 3.7 µM"},
      {"smiles": "Cc1noc(C)c1COc1cccc(C(=O)N(C)Cc2nc3ccccc3c(=O)[nH]2)c1", "Potency": "inconclusive [inhibitor, single point]"},
      {"smiles": "Cn1c(=O)[nH]c(=O)c2c1nc(CN1CCOCC1)n2Cc1ccccc1", "Potency": "inactive"},
      {"smiles": "CCC(C)n1c(SCC(=O)NC(=O)c2cccn2C)nc2ccccc2c1=O", "note": "(stereo not given)", "Potency": "inconclusive [inhibitor, single point]"},
      {"smiles": "O=C(CCC1CCCCC1)NCCN1C2=NC[C@H](Cc3ccc(O)cc3)N2C[C@H]1Cc1ccc(O)cc1", "Potency": "inconclusive [inhibitor, full curve]"},
      {"smiles": "Cc1ccc(-c2nnc(SCC(=O)NC3CCS(=O)(=O)C3)nc2-c2ccc(C)cc2)cc1", "note": "(stereo not given)", "Potency": "inconclusive [inhibitor, partial curve, poor fit]"},
      {"smiles": "Cc1nnc(C)n1/N=C/c1c(O)ccc2ccccc12", "Potency": "inactive"},
      {"smiles": "Cc1ccc(-c2noc(CCC(=O)NCC3CCN(Cc4cccc(C)c4)CC3)n2)cc1", "Potency": "inconclusive [inhibitor, partial curve]"},
      {"smiles": "COc1ccc(Cl)cc1NC(=O)CN(C)CC(=O)Nc1ccc2c(c1)OCO2", "Potency": "inconclusive [inhibitor, single point]"},
      {"smiles": "COc1ccc(N(CC(O)Cn2c(C)nc3ccccc32)S(=O)(=O)c2ccc(C)cc2)cc1", "note": "(stereo not given)", "Potency": "inconclusive [inhibitor, single point]"},
      {"smiles": "CC(C)NC(=S)N/N=C/c1ccccc1[N+](=O)[O-]", "Potency": "inconclusive [inhibitor, single point]"},
      {"smiles": "CCCN(CC(=O)Nc1ccccc1C)C(=O)c1ccc(OCc2c(C)noc2C)cc1", "Potency": "inconclusive [inhibitor, full curve, poor fit]"},
      {"smiles": "CCc1ccc(NC(=O)CCc2nnc3ccc(N4CCCC4)nn23)cc1", "Potency": "inactive"},
      {"smiles": "CCn1c(C)cc(/C=C2\\NC(=O)N(CC(=O)Nc3cccc(C)c3)C2=O)c1C", "Potency": "inconclusive [inhibitor, partial curve, poor fit]"},
      {"smiles": "CCOC(=O)C1=C(CC)Nc2ccccc2N=C1NC(=O)c1oc2ccccc2c1C", "Potency": "inconclusive [inhibitor, single point]"},
      {"smiles": "CCn1c(O)c(N=NC(=O)CNC(=O)Cc2ccccc2)c2ccccc21", "Potency": "inactive"},
      {"smiles": "Cc1c(Cl)cccc1NC(=S)NCC(c1cccnc1)N(C)C", "note": "(stereo not given)", "Potency": "inactive"},
      {"smiles": "COc1ccc(C(CNC(=O)COc2ccccc2-c2ccccc2)N2CCOCC2)cc1", "note": "(stereo not given)", "Potency": "inconclusive [inhibitor, single point]"},
      {"smiles": "O=C(COC(=O)c1c2c(nc3ccccc13)CCCC2)c1ccc(Br)s1", "Potency": "inconclusive [inhibitor, partial curve, poor fit]"},
      {"smiles": "CN1CCN(NC(=O)c2ccc(S(=O)(=O)N3CCCCCC3)cc2)CC1", "Potency": "inconclusive [inhibitor, partial curve, poor fit]"},
      {"smiles": "COc1ccccc1-c1nnc2sc(COc3ccccc3)nn12", "Potency": "inconclusive [inhibitor, single point]"},
      {"smiles": "Cc1ccc(C(O)(COC(=O)C(C)C)COC(=O)C(C)C)c(O)c1", "Potency": "inconclusive [inhibitor, full curve, poor fit]"},
      {"smiles": "Cc1ccc(NCC(=O)c2ccc([N+](=O)[O-])cc2)cc1", "Potency": "inconclusive [inhibitor, single point]"},
      {"smiles": "COC(=O)C(CCSC)NC(=O)c1cc2c(n(-c3ccccc3)c1=O)CC(C)(C)CC2=O", "note": "(stereo not given)", "Potency": "inactive"},
      {"smiles": "CCn1cc([N+](=O)[O-])c(C(=O)N2N=C(c3ccc(O)c(OC)c3)CC2c2ccccc2O)n1", "note": "(stereo not given)", "Potency": "inconclusive [inhibitor, single point]"},
      {"smiles": "COc1cccc(Oc2cn[nH]c2-c2ccc(OCC(=O)NN)cc2O)c1", "Potency": "inconclusive [inhibitor, single point]"},
      {"smiles": "COc1ccc(-c2cc(C(=O)Nc3c(C)n(C)n(-c4ccccc4)c3=O)no2)cc1", "Potency": "inconclusive [inhibitor, partial curve, poor fit]"},
      {"smiles": "CN(CC(=O)NCC1CCCCC1)S(=O)(=O)c1ccc(F)cc1", "Potency": "inactive"},
      {"smiles": "COc1ccc(C(=O)NCC(=O)OCc2nc(N)nc(Nc3ccccc3C)n2)cc1", "Potency": "inactive"},
      {"smiles": "CC1CCN(c2c(NCC3CCC(C(=O)NCc4ccccc4)CC3)c(=O)c2=O)CC1", "note": "(stereo not given)", "Potency": "inactive"},
      {"smiles": "CCN(CC(=O)Nc1ccccc1C(F)(F)F)C(=O)c1cccc(S(=O)(=O)N2CCN(C)CC2)c1", "Potency": "inactive"},
      {"smiles": "CCN(c1ccc(OC)cc1)S(=O)(=O)c1csc(C(=O)N2CCCC2)c1", "Potency": "inconclusive [inhibitor, single point]"},
      {"smiles": "COc1ccc(S(=O)(=O)N2CCCOC2CNC(=O)C(=O)NCc2ccco2)cc1C", "note": "(stereo not given)", "Potency": "inconclusive [inhibitor, single point]"},
      {"smiles": "COc1cc(N2Cc3ccccc3C2)ccc1C=O", "Potency": "inactive"},
      {"smiles": "O=C(CNC(=O)c1ccccc1F)OCCOc1cccc(Cl)c1", "Potency": "inconclusive [inhibitor, single point]"},
      {"smiles": "COc1cccc(CN(C)C(=O)c2cccc(S(=O)(=O)N3CCN(c4ccc(F)cc4)CC3)c2)c1OC", "Potency": "active: 10.4 µM"},
      {"smiles": "CC1CCN(C(=O)CC2C(=O)Nc3c2c(=O)n(C)c(=O)n3Cc2ccccc2)CC1", "note": "(stereo not given)", "Potency": "inconclusive [inhibitor, partial curve, poor fit]"},
      {"smiles": "CCCC(=O)N(CCN(C(=O)CCC)c1ccccc1)c1ccccc1", "Potency": "inconclusive [inhibitor, single point]"},
      {"smiles": "Cc1cc(C)c(C#N)c(SC(C(=O)NC(C)(C)C)c2ccccc2)n1", "note": "(stereo not given)", "Potency": "inconclusive [inhibitor, single point]"},
      {"smiles": "CCN1C(=O)[C@H]2[C@@H](c3ccc(C)cc3)N3C(=O)N(c4cccc(F)c4)C(=O)[C@@]3(CC)[C@H]2C1=O", "Potency": "inactive"},
      {"smiles": "Cc1cc(C)n2nc(C(=O)Nc3cccc(S(=O)(=O)N(C)c4ccccc4)c3)nc2n1", "Potency": "inconclusive [inhibitor, single point]"},
      {"smiles": "CCCCn1c(SCC(=O)NCC2CCCO2)nc2ccc(N3CCOCC3)cc2c1=O", "note": "(stereo not given)", "Potency": "inconclusive [inhibitor, single point]"},
      {"smiles": "COc1ccc(CN2CCN(CCCc3ccccc3)C(CCO)C2)c(O)c1", "note": "(stereo not given)", "Potency": "inconclusive [inhibitor, single point]"},
      {"smiles": "CCCCN(C(=O)/C=C/c1ccc(OCC(C)C)c(OCC)c1)c1c(N)n(CCC)c(=O)[nH]c1=O", "Potency": "inconclusive [inhibitor, partial curve, poor fit]"},
      {"smiles": "Cc1ccc(-n2c(C)c(C)c3c(NCCO)ncnc32)cc1", "Potency": "inactive"},
      {"smiles": "Cc1cc(NC(=O)CN2CCOCC2)n(-c2ccccc2)n1", "Potency": "inactive"},
      {"smiles": "CN1CCN(c2ccc(C(N)=O)cc2[N+](=O)[O-])CC1", "Potency": "inconclusive [inhibitor, full curve, poor fit]"},
      {"smiles": "O=C(CCCCCNc1nc(=S)[nH]c2ccccc12)NCc1ccccc1Cl", "Potency": "inconclusive [inhibitor, single point]"},
      {"smiles": "Cc1ccccc1S(=O)(=O)Cc1ccc(C(=O)N2CCN(c3ccccc3F)CC2)o1", "Potency": "inconclusive [inhibitor, partial curve, poor fit]"},
      {"smiles": "O=C(NCc1ccc2[nH]c3c(c2c1)CCCC3)c1ccc(S(=O)(=O)N2CCOCC2)cc1", "Potency": "inconclusive [inhibitor, single point]"},
      {"smiles": "CC1CCCN(c2nc(-c3cccnc3)nc3scc(-c4ccccc4)c23)C1", "note": "(stereo not given)", "Potency": "inactive"},
      {"smiles": "COc1ccc(C2CC(=O)C(C3NCCc4ccccc43)=C(O)C2n2cncn2)cc1", "note": "(stereo not given)", "Potency": "active: 16.5 µM"},
      {"smiles": "O=C(CN(C1CC1)S(=O)(=O)c1ccc(S(=O)(=O)NC2CCCCC2)cc1)Nc1ccccc1", "Potency": "inconclusive [inhibitor, partial curve, poor fit]"},
      {"smiles": "CCOC(=O)c1c(C)[nH]c(C(=O)NCCc2ccc(OC)c(OC)c2)c1C", "Potency": "inconclusive [inhibitor, single point]"},
      {"smiles": "CC(C)(C)c1ccc(C(=O)NC(=S)NCc2ccco2)cc1", "Potency": "inconclusive [inhibitor, single point]"},
      {"smiles": "CCN(CC)CC(=O)Nc1sc2c(c1C(=O)c1ccccc1OC)CCC2", "Potency": "inconclusive [inhibitor, single point]"},
      {"smiles": "COc1ccccc1N1CCN(C(=O)c2ccc3c(c2)CCN3S(=O)(=O)c2ccccc2)CC1", "Potency": "active: 8.28 µM"},
      {"smiles": "CC1Cc2nc(SCC(=O)Nc3nccs3)n(C)c(=O)c2S1", "note": "(stereo not given)", "Potency": "inconclusive [inhibitor, single point]"},
      {"smiles": "CCOc1ccc(S(=O)(=O)N2CCN(c3ccccc3F)CC2)c2cccnc12", "Potency": "inconclusive [inhibitor, partial curve, poor fit]"},
      {"smiles": "Cc1cc(C)n(CC(=O)Nc2ccccc2)n1", "Potency": "inactive"},
      {"smiles": "Cc1cc([N+](=O)[O-])nn1CCCC(=O)Nc1sc2c(c1C(N)=O)CCCC2", "Potency": "inconclusive [inhibitor, partial curve, poor fit]"}
    ]}
  ]
}
